B1: YFP-CAD (domain or fragment)
chain: not shown
notes: In the CAD-CAD FRET the second copy carried CFP instead of YFP (CFP-CAD, gift of R. S. Lewis); also called WT CAD; source: HEK293-H, transfected, in live cells; not shown: YFP, N-terminal, kept
B2: YFP-CAD L347A (domain or fragment)
chain: not shown
notes: In the CAD-CAD FRET the second copy carried CFP instead of YFP; source: HEK293-H, transfected, in live cells; not shown: YFP, N-terminal, kept
B3: YFP-CAD W350A (domain or fragment)
chain: not shown
notes: as for B2

This series concerns the molecule itself. As to the kind of experiment: FRET or BRET; E-FRET between YFP-CAD and CFP-CAD in live HEK293-H cells, to probe CAD dimerization.
Take B1: the E-FRET is 0.11 ± 0.006.

Turning to B2, the E-FRET was 0.13 ± 0.006.

Protein B3 showed an E-FRET of 0.11 ± 0.009.

For the origin of these results see publication PMC9304783, “Mapping interactions between the CRAC activation domain and CC1 regulating the activity of the ER Ca^2+ sensor STIM1” (The Journal of Biological Chemistry, 2022).
